# Assay results published in the supplement of paper PMC12217912.
# The list shows a part of the results. The full chains were built here from the parent and the listed change. Inactive controls read about 0.05.
# B1: TEV protease; numbered along this chain (parent)
# chain: MGESLFKGPRDYNPISSSICHLTNESDGHTTSLYGIGFGPFIITNKHLFRRNNGTLVVQSLHGVFKVKDTTTLQQHLVDGRDMIIIRMPKDFPPFPQKLKFREPQREERICLVTTNFQTKSMSSMVSDTSCTFPSGDGIFWKHWIQTKDGQCGSPLVSTRDGFIVGIHSASNFTNTNNYFTSVPKNFMELLTNQEAQQWVSGWRLNADSVLWGGHKVFMVKPEEPFQPVKEATQL
# Variants of: B1
# Experiment: raw area under fraction-flipped curve 0-4 h after induction (AUC4h, not background-subtracted), DNA-recorder readout of cleavage of the substrate (dimensionless); higher = more cleavage of the substrate by the protease variant
# Settings: temperature: 34 °C; time window: 0-4 h after rhamnose induction
# Experimental: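 In vivo DNA recorder in E. coli TOP10(DE3) ΔrhaA at 34 °C. Each TEVp single-site mutant (parent TEVp 0) is paired with a single-site variant of the 7-mer TEVs (canonical ENLYFQ|S). The substrate sits between flexible linkers in a Bxb1-sfGFP-TEVs-SsrA fusion, so cleavage stabilises Bxb1 and speeds flipping of a recombination array, read by NGS. The value is the raw area under the fraction-flipped curve over 0-4 h after rhamnose induction (AUC4h), with ≥20 reads per time point. It is not background-subtracted; inactive controls average about 0.047.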
# 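Further: Bxb1 expression induced with 0.2% (w/v) L-rhamnose at OD600 near 0.5, cultures sampled hourly, flipped fraction per protease–substrate barcode pair counted by paired-end Illumina sequencing.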
Variant,area with substrate EALYFQS,area with substrate ECLYFQS,area with substrate EGLYFQS,area with substrate EILYFQS,area with substrate EKLYFQS,area with substrate EMLYFQS,area with substrate EPLYFQS,area with substrate EQLYFQS,area with substrate ERLYFQS,area with substrate ESLYFQS
MGESLFKGPRDYNPISSSICHLTNESDGHTTSLYGIGFGPFIITNKHLFRRNNGTLVVQSLHGVFKVKDTTTLQQHLVDGRDMIIIRMPKDFPPFPQKLKFREPQREERICLVTTNFQTKSMSSMVSDTSCTFPSGDGIFWKHWIQTKDGQCGSPLVSTRDGFIVGIHSASNFTNTNNYFTSVPKNFMELLTNQEAQQWVSGWRLNGDSVLWGGHKVFMVKPEEPFQPVKEATQL [A207G],0.0663,0.105,0.0789,0.0969,0.113,0.12,0.114,0.122,0.0893,0.0979
MGESLFKGPRDYNPISSSICHLTNESDGHTTSLYGIGFGPFIITNKHLFRRNNGTLVVQSLHGVFKVKDTTTLQQHLVDGRDMIIIRMPKDFPPFPQKLKFREPQREERICLVTTNFQTKSMSSMVSDTSCTFPSGDGIFWKHWIQTKDGQCGSPLVSTRDGFIVGIHSASNFTNTNNYFTSVPKNFMELLTNQEAQQWVSGWRLNAPSVLWGGHKVFMVKPEEPFQPVKEATQL [D208P],0.0781,,,,0.0652,,,0.0755,0.0794,0.0664
MGESLFKGPRDYNPISSSICHLTNESDGHTTSLYGIGFGPFIITNKHLFRRNNGTLVVQSLHGVFKVKDTTTLQQHLVDGRDMIIIRMPKDFPPFPQKLKFREPQREERICLVTTNFQTKSMSSMVSDTSCTFPSGDGIFWKHWIQTKDGQCGSPLVSTRDGFIVGIHSASNFTNTNNYFTSVPKNFMELLTNQEAQQWVSGWRLNADSHLWGGHKVFMVKPEEPFQPVKEATQL [V210H],0.0792,,,0.0764,,,,0.065,0.129,0.115
MGESLFKGPRDYNPISSSICHLTNESDGHTTSLYGIGFGPFIITNKHLFRRNNGTLVVQSLHGVFKVKDTTTLQQHLVDGRDMIIIRMPKDFPPFPQKLKFREPQREERICLVTTNFQTKSMSSMVSDTSCTFPSGDGIFWKHWIQTKDGQCGSPLVSTRDGFIVGIHSASNFTNTNNYFTSVPKNFMELLTNQEAQQWVSGWRLNADSRLWGGHKVFMVKPEEPFQPVKEATQL [V210R],0.0749,,,0.0489,0.0634,0.0945,,,0.0646,0.0699
MGESLFKGPRDYNPISSSICHLTNESDGHTTSLYGIGFGPFIITNKHLFRRNNGTLVVQSLHGVFKVKDTTTLQQHLVDGRDMIIIRMPKDFPPFPQKLKFREPQREERICLVTTNFQTKSMSSMVSDTSCTFPSGDGIFWKHWIQTKDGQCGSPLVSTRDGFIVGIHSASNFTNTNNYFTSVPKNFMELLTNQEAQQWVSGWRLNADSVAWGGHKVFMVKPEEPFQPVKEATQL [L211A],0.102,,,,,0.125,0.165,0.113,0.149,
MGESLFKGPRDYNPISSSICHLTNESDGHTTSLYGIGFGPFIITNKHLFRRNNGTLVVQSLHGVFKVKDTTTLQQHLVDGRDMIIIRMPKDFPPFPQKLKFREPQREERICLVTTNFQTKSMSSMVSDTSCTFPSGDGIFWKHWIQTKDGQCGSPLVSTRDGFIVGIHSASNFTNTNNYFTSVPKNFMELLTNQEAQQWVSGWRLNADSVRWGGHKVFMVKPEEPFQPVKEATQL [L211R],0.0874,,,,0.0969,0.112,,0.113,,0.0974
MGESLFKGPRDYNPISSSICHLTNESDGHTTSLYGIGFGPFIITNKHLFRRNNGTLVVQSLHGVFKVKDTTTLQQHLVDGRDMIIIRMPKDFPPFPQKLKFREPQREERICLVTTNFQTKSMSSMVSDTSCTFPSGDGIFWKHWIQTKDGQCGSPLVSTRDGFIVGIHSASNFTNTNNYFTSVPKNFMELLTNQEAQQWVSGWRLNADSVWWGGHKVFMVKPEEPFQPVKEATQL [L211W],0.166,0.0963,,0.152,,0.0818,0.0723,0.152,0.124,0.102
MGESLFKGPRDYNPISSSICHLTNESDGHTTSLYGIGFGPFIITNKHLFRRNNGTLVVQSLHGVFKVKDTTTLQQHLVDGRDMIIIRMPKDFPPFPQKLKFREPQREERICLVTTNFQTKSMSSMVSDTSCTFPSGDGIFWKHWIQTKDGQCGSPLVSTRDGFIVGIHSASNFTNTNNYFTSVPKNFMELLTNQEAQQWVSGWRLNADSVLCGGHKVFMVKPEEPFQPVKEATQL [W212C],0.118,0.121,,0.137,0.131,0.119,0.122,0.106,,0.115
MGESLFKGPRDYNPISSSICHLTNESDGHTTSLYGIGFGPFIITNKHLFRRNNGTLVVQSLHGVFKVKDTTTLQQHLVDGRDMIIIRMPKDFPPFPQKLKFREPQREERICLVTTNFQTKSMSSMVSDTSCTFPSGDGIFWKHWIQTKDGQCGSPLVSTRDGFIVGIHSASNFTNTNNYFTSVPKNFMELLTNQEAQQWVSGWRLNADSVLRGGHKVFMVKPEEPFQPVKEATQL [W212R],0.0504,,,0.0574,0.0295,0.0606,,0.0645,0.0544,0.0624
MGESLFKGPRDYNPISSSICHLTNESDGHTTSLYGIGFGPFIITNKHLFRRNNGTLVVQSLHGVFKVKDTTTLQQHLVDGRDMIIIRMPKDFPPFPQKLKFREPQREERICLVTTNFQTKSMSSMVSDTSCTFPSGDGIFWKHWIQTKDGQCGSPLVSTRDGFIVGIHSASNFTNTNNYFTSVPKNFMELLTNQEAQQWVSGWRLNADSVLWVGHKVFMVKPEEPFQPVKEATQL [G213V],0.0669,,,,0.0662,0.0603,,,0.0489,

# Same assay, conditions: temperature: 34 °C; time window: 0-4 h after rhamnose induction
Variant,area with substrate EVLYFQS,area with substrate EWLYFQS,area with substrate EYLYFQS,area with substrate EELYFQS,area with substrate EHLYFQS,area with substrate ELLYFQS,area with substrate ETLYFQS,area with substrate EDLYFQS,area with substrate EFLYFQS
MGESLFKGPRDYNPISSSICHLTNESDGHTTSLYGIGFGPFIITNKHLFRRNNGTLVVQSLHGVFKVKDTTTLQQHLVDGRDMIIIRMPKDFPPFPQKLKFREPQREERICLVTTNFQTKSMSSMVSDTSCTFPSGDGIFWKHWIQTKDGQCGSPLVSTRDGFIVGIHSASNFTNTNNYFTSVPKNFMELLTNQEAQQWVSGWRLNGDSVLWGGHKVFMVKPEEPFQPVKEATQL [A207G],0.0917,0.0704,0.105,,,,,,
MGESLFKGPRDYNPISSSICHLTNESDGHTTSLYGIGFGPFIITNKHLFRRNNGTLVVQSLHGVFKVKDTTTLQQHLVDGRDMIIIRMPKDFPPFPQKLKFREPQREERICLVTTNFQTKSMSSMVSDTSCTFPSGDGIFWKHWIQTKDGQCGSPLVSTRDGFIVGIHSASNFTNTNNYFTSVPKNFMELLTNQEAQQWVSGWRLNAPSVLWGGHKVFMVKPEEPFQPVKEATQL [D208P],0.0691,,,0.0701,0.0735,0.0846,0.0872,,
MGESLFKGPRDYNPISSSICHLTNESDGHTTSLYGIGFGPFIITNKHLFRRNNGTLVVQSLHGVFKVKDTTTLQQHLVDGRDMIIIRMPKDFPPFPQKLKFREPQREERICLVTTNFQTKSMSSMVSDTSCTFPSGDGIFWKHWIQTKDGQCGSPLVSTRDGFIVGIHSASNFTNTNNYFTSVPKNFMELLTNQEAQQWVSGWRLNADSHLWGGHKVFMVKPEEPFQPVKEATQL [V210H],0.0771,,0.0727,,,,0.0809,0.104,
MGESLFKGPRDYNPISSSICHLTNESDGHTTSLYGIGFGPFIITNKHLFRRNNGTLVVQSLHGVFKVKDTTTLQQHLVDGRDMIIIRMPKDFPPFPQKLKFREPQREERICLVTTNFQTKSMSSMVSDTSCTFPSGDGIFWKHWIQTKDGQCGSPLVSTRDGFIVGIHSASNFTNTNNYFTSVPKNFMELLTNQEAQQWVSGWRLNADSRLWGGHKVFMVKPEEPFQPVKEATQL [V210R],,0.066,0.0642,0.0732,,,0.0594,,
MGESLFKGPRDYNPISSSICHLTNESDGHTTSLYGIGFGPFIITNKHLFRRNNGTLVVQSLHGVFKVKDTTTLQQHLVDGRDMIIIRMPKDFPPFPQKLKFREPQREERICLVTTNFQTKSMSSMVSDTSCTFPSGDGIFWKHWIQTKDGQCGSPLVSTRDGFIVGIHSASNFTNTNNYFTSVPKNFMELLTNQEAQQWVSGWRLNADSVAWGGHKVFMVKPEEPFQPVKEATQL [L211A],,,0.104,0.123,,,,,
MGESLFKGPRDYNPISSSICHLTNESDGHTTSLYGIGFGPFIITNKHLFRRNNGTLVVQSLHGVFKVKDTTTLQQHLVDGRDMIIIRMPKDFPPFPQKLKFREPQREERICLVTTNFQTKSMSSMVSDTSCTFPSGDGIFWKHWIQTKDGQCGSPLVSTRDGFIVGIHSASNFTNTNNYFTSVPKNFMELLTNQEAQQWVSGWRLNADSVRWGGHKVFMVKPEEPFQPVKEATQL [L211R],,,,,,0.0959,,,
MGESLFKGPRDYNPISSSICHLTNESDGHTTSLYGIGFGPFIITNKHLFRRNNGTLVVQSLHGVFKVKDTTTLQQHLVDGRDMIIIRMPKDFPPFPQKLKFREPQREERICLVTTNFQTKSMSSMVSDTSCTFPSGDGIFWKHWIQTKDGQCGSPLVSTRDGFIVGIHSASNFTNTNNYFTSVPKNFMELLTNQEAQQWVSGWRLNADSVWWGGHKVFMVKPEEPFQPVKEATQL [L211W],0.0762,0.0678,,0.0586,,,,,
MGESLFKGPRDYNPISSSICHLTNESDGHTTSLYGIGFGPFIITNKHLFRRNNGTLVVQSLHGVFKVKDTTTLQQHLVDGRDMIIIRMPKDFPPFPQKLKFREPQREERICLVTTNFQTKSMSSMVSDTSCTFPSGDGIFWKHWIQTKDGQCGSPLVSTRDGFIVGIHSASNFTNTNNYFTSVPKNFMELLTNQEAQQWVSGWRLNADSVLCGGHKVFMVKPEEPFQPVKEATQL [W212C],,,,,0.0858,0.0712,0.114,,
MGESLFKGPRDYNPISSSICHLTNESDGHTTSLYGIGFGPFIITNKHLFRRNNGTLVVQSLHGVFKVKDTTTLQQHLVDGRDMIIIRMPKDFPPFPQKLKFREPQREERICLVTTNFQTKSMSSMVSDTSCTFPSGDGIFWKHWIQTKDGQCGSPLVSTRDGFIVGIHSASNFTNTNNYFTSVPKNFMELLTNQEAQQWVSGWRLNADSVLRGGHKVFMVKPEEPFQPVKEATQL [W212R],0.0715,0.0803,,,,0.0589,0.0637,0.0739,0.0572
